Measured values from the supplement of paper PMC5919970.
Counter-ions that a name gives are not always drawn. In all, about 2,000 compounds were measured (“fractional viability relative to vehicle”: median about 0.91, lowest 2% from about 0.045 on). Some of the results follow.

Test system: TYKNU
Test: fractional viability relative to vehicle; TYKNU is a high-grade serous ovarian cancer line; higher = less growth inhibition
Conditions: 72 h
Summary of the method: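 Drug treatment lasted 72 h, with cells grown at 37 °C in 5% CO2 in RPMI 1640 supplemented with 10% FBS. Beforehand, TYKNU control cells or their lentiCRISPRv2 knockout derivatives had been seeded at 500 cells per well into drug-stamped 384-well plates carrying a ~2100-compound library at 2 or 10 μM, in duplicate. Viability came from Cell Titer Glo luminescence, with averaged duplicate treatment wells normalised to duplicate control wells in the same plate position.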

[1] = 2uM, genotype: DNM1L knockout (sgDNM1L #1)
[2] = 2uM, genotype: sgCTRLA1 (non-targeting control)
[3] = 10uM, genotype: DNM1L knockout (sgDNM1L #1)
[4] = 10uM, genotype: sgCTRLA1 (non-targeting control)

Row | SMILES | fractional viability [1] | fractional viability [2] | fractional viability [3] | fractional viability [4]
1 | CN1CCC(COc2cnc(-c3cccc(Cn4nc(-c5cccc(C#N)c5)ccc4=O)c3)nc2)CC1 | 0.843 | 1.02 | 0.115 | 0.126
2 | COc1cc(C(=O)NC2CCCNC2)cc(OC)c1OC (configuration not stated) [Troxipide] | 0.905 | 1.08 | 0.871 | 1.01
3 | C[C@]12CC[C@@H]3c4ccc(O)cc4CC[C@H]3[C@@H]1CCC2=O [Estrone] | 0.947 | 1.01 | 0.983 | 0.979
4 | CCCCCCCCc1ccc(CCC(N)(CO)CO)cc1 [Fingolimod (FTY720) HCl] | 0.722 | 1.02 | 0.0372 | 0.0418
5 | COc1ccc2[nH]c([S+]([O-])Cc3ncc(C)c(OC)c3C)nc2c1 (configuration not stated) [Omeprazole] | 1.4 | 1.09 | 0.901 | 1.17
6 | CCS(=O)(=O)Nc1ccc2c(c1)/C(=C(/Nc1ccc(CN3CCCCC3)cc1)c1ccccc1)C(=O)N2 [Hesperadin] | 0.316 | 0.329 | 0.0548 | 0.0381
7 | O=C(Nc1ccc(-c2ccnc(Nc3ccc(N4CCOCC4)cc3)n2)cc1)C1CCCN1 (configuration not stated) | 0.994 | 1.14 | 1.01 | 0.923
8 | COc1nc(-c2ccc3c(c2)OCO3)n(-c2ccc(NC(=O)CSc3ccccc3)cc2)n1 [SecinH3] | 0.777 | 0.923 | 0.797 | 0.767
9 | NC(=S)N/N=C/c1ncccc1N [Triapine] | 0.194 | 0.166 | 0.216 | 0.167
10 | Nc1cccc2c1CN(C1CCC(=O)NC1=O)C2=O (configuration not stated) [Lenalidomide (CC-5013)] | 0.994 | 1.07 | 0.97 | 1
11 | O=C(NS(=O)(=O)c1ccc(Br)s1)c1ccc(Cl)cc1Cl [Tasisulam] | 0.84 | 0.973 | 0.503 | 0.726
12 | C/C(=N\NC(=O)c1cccc(S(=O)(=O)N2CCOCC2)c1)c1cc(Cl)ccc1O | 0.348 | 0.356 | 0.242 | 0.136
13 | OCCOCCN1CCN(C(c2ccccc2)c2ccc(Cl)cc2)CC1 (configuration not stated) [Hydroxyzine 2HCl] | 0.999 | 1.15 | 0.708 | 1
14 | COc1ccc(CNC(=O)Nc2ncc([N+](=O)[O-])s2)cc1 | 1.16 | 1.14 | 0.911 | 0.791
15 | Cn1c2ccccc2c2c3c(c4c5ccccc5n(CCC#N)c4c21)CNC3=O | 0.64 | 1.01 | 0.671 | 0.79
16 | Cc1ccccc1N1C(=O)c2cc(S(N)(=O)=O)c(Cl)cc2NC1C (configuration not stated) [Metolazone] | 1.06 | 1.24 | 0.826 | 1.13
17 | Cc1cc(-n2c(=O)[nH]c(=O)n(C)c2=O)ccc1Oc1ccc(SC(F)(F)F)cc1 [Toltrazuril] | 1.02 | 1 | 0.841 | 0.948
18 | [I-].[K+] [Potassium Iodide] | 0.934 | 1.16 | 0.955 | 0.937
